Results: paper PMC4336329 (PLoS ONE, 2015)
The campaign covered roughly 310,000 compounds. About 2,200 (0.71%) showed an effect of 50% or more. Effects have a minus sign here. The list shows a part of the results.

target: human ether-à-go-go-related gene (hERG) potassium channel (human, UniProt Q12809); experiment: primary screen, population patch clamp on CHO cells stably expressing hERG
Sequence (Q12809 whole entry, looked up): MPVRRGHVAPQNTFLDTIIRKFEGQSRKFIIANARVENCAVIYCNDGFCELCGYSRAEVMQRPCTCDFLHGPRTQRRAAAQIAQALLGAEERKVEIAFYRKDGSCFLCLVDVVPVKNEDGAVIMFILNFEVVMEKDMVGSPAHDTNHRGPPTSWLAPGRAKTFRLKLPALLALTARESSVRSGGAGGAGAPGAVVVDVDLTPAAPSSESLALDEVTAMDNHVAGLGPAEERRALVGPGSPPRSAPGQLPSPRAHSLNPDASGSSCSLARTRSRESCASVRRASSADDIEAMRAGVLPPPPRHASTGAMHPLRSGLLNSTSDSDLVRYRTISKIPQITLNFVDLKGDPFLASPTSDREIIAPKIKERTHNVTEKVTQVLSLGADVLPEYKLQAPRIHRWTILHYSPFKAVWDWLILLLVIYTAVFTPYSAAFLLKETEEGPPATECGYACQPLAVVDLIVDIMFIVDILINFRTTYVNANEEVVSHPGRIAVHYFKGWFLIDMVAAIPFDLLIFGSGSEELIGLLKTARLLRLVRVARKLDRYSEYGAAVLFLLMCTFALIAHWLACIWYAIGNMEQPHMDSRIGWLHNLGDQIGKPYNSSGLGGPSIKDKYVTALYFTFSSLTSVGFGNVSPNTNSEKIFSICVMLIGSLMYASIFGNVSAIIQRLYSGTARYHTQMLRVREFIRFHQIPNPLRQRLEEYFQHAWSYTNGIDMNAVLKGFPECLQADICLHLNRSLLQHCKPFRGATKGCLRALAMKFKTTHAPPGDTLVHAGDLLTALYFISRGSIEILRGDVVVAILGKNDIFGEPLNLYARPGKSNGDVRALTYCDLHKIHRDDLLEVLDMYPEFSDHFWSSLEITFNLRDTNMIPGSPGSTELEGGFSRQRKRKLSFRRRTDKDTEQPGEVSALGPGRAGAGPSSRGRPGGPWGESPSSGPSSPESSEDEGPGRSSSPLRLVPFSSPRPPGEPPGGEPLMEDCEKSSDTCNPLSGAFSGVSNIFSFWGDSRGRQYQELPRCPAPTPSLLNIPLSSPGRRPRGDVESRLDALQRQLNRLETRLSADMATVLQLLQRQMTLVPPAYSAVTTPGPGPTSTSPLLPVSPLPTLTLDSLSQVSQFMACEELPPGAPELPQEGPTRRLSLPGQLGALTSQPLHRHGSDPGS

| SMILES | hERG current change (%, negative = inhibition) at 1uM [%] |
| --- | --- |
| Cc1ccsc1CN(C)C(=O)C(NC(=O)c1cccc(S(=O)(=O)N2CCOCC2)c1)C(C)C (centres unmarked) | -10.3 |
| Cc1cc(NC(=O)C(C)C)ncc1NC(=O)c1cccc(F)c1 | 15.3 |
| CN(CC(=O)NCC(c1ccco1)N1CCCCC1)S(=O)(=O)c1ccc(Cl)cc1 (centres unmarked) | 6.87 |
| CC(C)C[C@H](NC(=O)N1CCn2c1nc1ccccc12)C(=O)NC1CC1 | 6.04 |
| CC(C)CCN1CCN(Cc2ccc(Oc3ncccn3)cc2)CC1CCO (centres unmarked) | 3.78 |
| CN(C)S(=O)(=O)c1ccc(S(=O)(=O)NCc2ccc3c(c2)OCO3)cc1 | 7.94 |
| FC(F)(F)c1ccc(Oc2ccc3ccccc3c2Br)nc1 | 8.16 |
| CCC(=O)N(Cc1ccc(S(N)(=O)=O)cc1)C1CC(=O)N(c2ccc(OC)cc2)C1=O (centres unmarked) | 6.33 |
| CCOc1ccc(CCNC(=O)c2ccc(CNS(=O)(=O)c3ccccc3)cc2)cc1OCC | 7.92 |
| N=C1SC(c2ccccc2)C(=O)N1c1ncc(Cc2ccccc2Cl)s1 (centres unmarked) | 3.19 |
| C=CCOc1ccc(/C=C/C(C)=N\O)cc1 | 4.21 |
| Cc1[nH]c2ccccc2c1/C=N/NC(=O)c1cccc(F)c1 | 11.3 |
| NC(=O)Cn1c(=O)n(C2CCCCC2)c(=O)c2c3c(sc21)CCCCC3 | 10.3 |
| O=C(Cn1cc([N+](=O)[O-])cn1)NCc1ccccc1 | 16.8 |
| O=C(OC1CCOC1=O)C1CCN(S(=O)(=O)c2c(Cl)cccc2Cl)CC1 (centres unmarked) | 11.5 |
| CC1CCN(S(=O)(=O)c2cn(CC(=O)Nc3ccc(C#N)cc3)cn2)CC1 | 8 |
| COc1ccc2c(c1)c(C(=O)N/N=C/c1ccc(O)c(O)c1)c(C)n2C | 13.3 |
| COc1cccc(OCCCCN2CC(C)OC(C)C2)c1.O=C(O)C(=O)O (centres unmarked) | 8.93 |
| Cc1ccccc1N1CCN(C2CCCN(C(=O)c3cc(CC(C)C)nn3C)C2)CC1 (centres unmarked) | 5.95 |
| COC(=O)C1CCN(S(=O)(=O)Cc2ccccc2Cl)CC1 | 20 |
| CN1CCC(OC(=O)c2cccc(Br)c2)CC1.Cl | -13.3 |
| CC(=O)Nc1ccc(NC(=O)C(C)n2c3ccccc3c3nc(=O)cc(C)n32)cc1 (centres unmarked) | 0.598 |
| COc1ccc(COC(=O)N/N=C(\C)CC(=O)NCc2ccc(Cl)cc2)cc1 | 10.8 |

| SMILES | hERG current change (%, negative = inhibition) at 1uM [%] |
| --- | --- |
| COC(=O)c1ccccc1NC(=O)c1sc(Cl)nc1C | 5.06 |
| O=C(NCc1ccc[n+](CCCCS(=O)(=O)[O-])c1)c1ccc(OC(F)F)cc1 | -3.6 |
| O=C(COC(=O)C12CC3CC(CC(O)(C3)C1)C2)NC(=O)NCc1ccco1 | 4.54 |
| Cc1nnc(NC(=O)c2ccccc2Oc2ccccc2)s1 | 9.33 |
| COC(=O)CC(NC(=O)c1ccco1)c1cccc2ccccc12 (centres unmarked) | -5.37 |
| COc1cc(/C(C)=N\NC(=O)CSc2nc3ccccc3n2C)ccc1O | 12.2 |
| Oc1ccc(Br)cc1CNc1cccc2cccnc12 | 13.6 |
| CC(=O)Nc1ccc(S(=O)(=O)NCc2cn3c(C)csc3n2)cc1 | 5.79 |
| CC(C)CCSc1nc(N)c(C#N)cc1C#N | 1.91 |
| Cc1cccc(Cn2ccc(-c3ccc(Cl)cc3)c(C#N)c2=O)c1 | 7.94 |
| Cc1ccc([C@@H]2[C@@H]3C(=O)N(C)C(=O)[C@@H]3[C@]3(C)C(=O)N(Cc4ccccn4)CC(=O)N23)o1 | 13.9 |
| O=C(COc1ccccc1Cl)NC(=S)Nc1ccccc1N1CCCC1 | 15.4 |
| CCCNC(=O)CSc1nc2[nH]ncc2c(=O)[nH]1 | -5.12 |
| Cc1nc2ncnn2c(C)c1Cc1c(Cl)cccc1Cl | 10.5 |
| Cc1cccc(NS(=O)(=O)c2ccc3[nH]c(=O)cc(C(=O)OC(C)C(=O)Nc4ccc([N+](=O)[O-])cc4)c3c2)c1 (centres unmarked) | 7.95 |
| O=C(N/C(=C\c1ccccc1)C(=O)N1CCCCCC1)c1ccccc1 | 21.1 |
| Cc1sc2ncnc(NCC(c3ccco3)N3CCCC3)c2c1C (centres unmarked) | -28.4 |
| O=C(C1CCC1)N1CCN(c2cccc(C(F)(F)F)c2)CC1 | 4.25 |
| O=C1CC2(CCN(C(=O)c3cccc(Br)c3)CC2)Oc2ccccc21 | -56 |
| COc1ccc([C@H]2CC(=O)C=C(c3cccc(Cl)c3)C2)cc1OC | -7.44 |
| Cc1ccc(N2C(=O)N(CC(=O)Nc3c(C)cc(C)cc3Cl)C(=O)C2C)cc1 (centres unmarked) | -8.12 |
| Nn1c(Cc2ccccc2F)nnc1SCCOc1ccc(Cl)cc1 | -2.75 |
| COc1ccc(-c2noc(CN(C(=O)c3ccc4c(c3)OCO4)C(C)C)n2)cc1OC | 4.02 |

| SMILES | hERG current change (%, negative = inhibition) at 1uM [%] |
| --- | --- |
| O=[N+]([O-])c1cc(-c2csc(NCCc3nc4cc(Cl)c(Cl)cc4n3CCCO)n2)ccc1Cl | 9.13 |
| C/C(=N\NC(=O)CSc1nc2ccccc2[nH]1)c1ccncc1 | 9.29 |
| O=C(CCC(=O)N(CC(=O)NC1CCCC1)C1CCCC1)Nc1ccccn1 | -3.99 |
| COc1ccc(CCNC(=O)C(NC(=O)OCc2ccccc2)C(C)C)cc1OC (centres unmarked) | 5.51 |
| CCN(CC)c1ccc(C=Nc2ccc(C)cc2C)c(O)c1 | 12.6 |
| Cc1ccc(S(=O)(=O)NCC(=O)N2CCOCC2)cc1 | 12.1 |
| COc1cc(C(=O)Nc2nnc(CC(C)(C)C)s2)c([N+](=O)[O-])cc1OC | 9.57 |
| CCCN(c1ccccc1F)S(=O)(=O)c1cc(-c2cc(C)no2)ccc1OC | 15.2 |
| CC(C)(C)CN1CCN(CCCc2ccccc2)C(CCO)C1 (centres unmarked) | -5.87 |
| O=C(/C=C/c1ccco1)NCC1OCCc2ccccc21 (centres unmarked) | 15.9 |
| O=C1CN(S(=O)(=O)c2ccccc2)CC(=O)N1CCc1ccccc1 | 9.7 |
| Cn1cc(Br)c(C(=O)NNC(=O)Cc2ccc(Cl)cc2)n1 | 11 |
| O=CN(Cc1ccco1)C1(C(=O)NC2CCCCC2)CCCCC1 | 5.42 |
| O=[N+]([O-])/C=C1\NCCN1Cc1ccc(Cl)nc1 [24810910] | 11 |
| N=c1c2c3c(sc2ncn1N)CCCC3 | 2.4 |
| O=C(NCc1ccccc1)c1cccc(S(=O)(=O)NCc2ccccc2)c1 | 6.18 |
| Cc1ccccc1OCc1nnc(SCC(=O)NC2CCCCC2)o1 | 1.81 |
| N#CC1=C(N)OC2=C(C(=O)CCC2)C1c1ccoc1 (centres unmarked) | 9.36 |
| CCOc1ccc(-c2nc(CSc3nncs3)cs2)cc1OC | -0.186 |
| CC1(C)C/C(=C(/C#N)C(N)=O)CCO1 | 15.2 |
| CCCNC(=O)Cn1c(=O)n(C)c2ccccc21 | 10.9 |
| CC(CNS(=O)(=O)c1ccccc1)Sc1nncn1C (centres unmarked) | 20.8 |
| COc1ccc(C(=O)N2CCN(c3ccc(C)cc3C)CC2)cc1OC | -13.8 |

| SMILES | hERG current change (%, negative = inhibition) at 1uM [%] |
| --- | --- |
| CC1CN(CC(=O)Nc2cc(S(=O)(=O)N3CCCC3)ccc2Cl)CC(C)O1 (centres unmarked) | 10.8 |
| CC(C)OC(=O)/C(C#N)=C\c1cccnc1 | 14.3 |
| Cc1ccc(C(=O)Nc2ccc(NC(=O)c3ccc(C)o3)cc2)o1 | 7.55 |
| O=C(NCCCN1CCOCC1)c1ccc(Sc2cccc(Cl)c2)c([N+](=O)[O-])c1 | 8.39 |
| Clc1ccc(C2Nc3ccccc3-n3cccc32)cc1 (centres unmarked) | 11.1 |
| Cn1c(O)c(N=NC(=O)c2ccccc2O)c2ccccc21 | 6.95 |
| CSCCNC(=O)c1ccc2nc(Cc3ccccc3F)oc2c1 | 15.1 |
| CCOc1ccc(NC(=O)CN(C)C(=O)/C=C/c2ccco2)cc1OCC | -14.3 |
| C=C(C)COc1ccc(-c2[nH]ncc2Oc2ccccc2OC)c(O)c1 | -27.4 |
| CCOc1ccc(-n2c(O)c(/C=N/Nc3nc(C)cc(C)n3)c3ccccc3c2=O)cc1 | 1.4 |
| COc1ccccc1NC(=O)CN(Cc1ccco1)C(=O)c1ccc(=O)[nH]c1 | 9.78 |
| O=C(CN1CCOCC1)Nc1nc(-c2ccc(Cl)cc2)cs1 | -1.22 |
| COc1ccc(/C=C/C(=O)c2cc3c(cc2N)OCO3)cc1 | 10.4 |
| CCOC(=O)C1=C(N)n2c(s/c(=C\c3ccco3)c2=O)=C(C(=O)OCC)C1c1ccco1 (centres unmarked) | -4.35 |
| CNS(=O)(=O)c1cn(CC(=O)NCc2cccc(OC)c2)cc1S(=O)(=O)NC | 2.52 |
| O=C(N/N=C/c1ccccn1)c1ccco1 | 13 |
| CC(C(=O)N1CCOCC1)N1C(=O)c2ccccc2C1=O (centres unmarked) | 12.3 |
| COc1ccc(CC2C(=O)NC(=O)NC2=O)c(OC)c1 | 9.38 |
| COCCn1c(=NC(=O)c2cc(Cl)sc2Cl)sc2cc(S(N)(=O)=O)ccc21 | 12.4 |
| Cc1cccc(Oc2coc3cc(OC(=O)c4cc5ccccc5oc4=O)ccc3c2=O)c1 | -6.09 |
